Measurements taken from patent publication US6838475B2, “Imidazolidinones as NS3-serine protease inhibitors of hepatitis C virus” (Schering Corporation, priority 2000, dated 2005).

Molecular target: HCV NS3/NS4A protease (strain 1a) (Hepatitis C virus genotype 1a, UniProt P27958)
Test: biochemical
Conditions: not given
Protocol: Spectronhotometric Assay: Spectrophotometric assay for the HCV serine protease was performed on the inventive compounds by following the procedure described by R. Zhang et al., Analytical Biochemistry, 270 (1999) 268-275, the disclosure of which is incorporated herein by reference. The assay based on the proteolysis of chromogenic ester substrates is suitable for the continuous monitoring of HCV NS3 protease activity. The substrates were derived from the P side of the NS5A—NS5B junction sequence (Ac-DTEDVVX(Nva) (SEQ ID NO: 1), where X=A or P) whose C-terminal carboxyl groups were esterified with one of four different chromophoric alcohols (3- or 4-nitrophenol, 7-hydroxy-4-methyl-coumarin, or 4-phenylazophenol).
Protein concentrations were determined by the Biorad dye method using recombinant HCV protease standards previously quantified by amino acid analysis. Prior to assay initiation, the enzyme storage buffer (50 mM sodium phosphate pH 8.0, 300 mM NaCl, 10% glycerol, 0.05% lauryl maltoside and 10 mM DTT) was exchanged for the assay buffer (25 mM MOPS pH 6.5, 300 mM NaCl, 10% glycerol, 0.05% lauryl maltoside, 5 μM EDTA and 5 μM DTT) utilizing a Biorad Bio-Spin P-6 prepacked column.
Protease Assay: HCV protease assays were performed at 30° C. using a 200 μl reaction mix in a 96-well microtiter plate. Assay buffer conditions (25 mM MOPS pH 6.5, 300 mM NaCl, 10% glycerol, 0.05% lauryl maltoside, 5 μM EDTA and 5 μM DTT) were optimized for the NS3/NS4A heterodimer (D. L. Sali et al, ibid.)). […] Fifty μls of prewarmed protease (12 nM, 30° C.) in assay buffer, was then used to initiate the reaction (final volume 200 μl).The plates were monitored over the length of the assay (60 minutes) for change in absorbance at the appropriate wavelength (340 nm for 3-Np and HMC, 370 nm for PAP, and 400 nm for 4-Np) using a Spectromax Plus microtiter plate reader equipped with a monochrometer (acceptable results can be obtained with plate readers that utilize cutoff filters). Proteolytic cleavage of the ester linkage between the Nva and the chromophore was monitored at the appropriate wavelength against a no enzyme blank as a control for non-enzymatic hydrolysis. The evaluation of substrate kinetic parameters was performed over a 30-fold substrate concentration range (˜6-200 μM). Initial velocities were determined using linear regression and kinetic constants were obtained by fitting the data to the Michaelis-Menten equation using non-linear regression analysis (Mac Curve Fit 1.1, K. Raner). Turnover numbers (kcat) were calculated assuming the enzyme was fully active.
Evaluation of Inhibitors and Inactivators: The inhibition constants (Kj) for the competitive inhibitors Ac-D-(D-Gla)-L-I-(Cha)-C-OH (27) (SEQ ID NO: 2), Ac-DTEDVVA(Nva)-OH (SEQ ID NO: 3) and Ac-DTEDVVP(Nva)-OH (SEQ ID NO: 4) were determined experimentally at fixed concentrations of enzyme and substrate by plotting vo/vi vs. inhibitor concentration ([I]o) according to the rearranged Michaelis-Menten equation for competitive inhibition kinetics: vo/vi=1[I]o/(Ki(1+[S]o/Km)), where vo is the uninhibited initial velocity, vi is the initial velocity in the presence of inhibitor at any given inhibitor concentration ([I]o) and [S]o is the substrate concentration used. The resulting data were fitted using linear regression and the resulting slope, 1/(Ki(1[S]o/Km), was used to calculate the Ki* value.

SMILES	Ki [µM]
CCCC(NC(=O)C1CN(Cc2cccc(OC)c2)C(=O)N1C(=O)C(NC(=O)C(NC(C)=O)C(C)C)C1CCCCC1)C(=O)C(=O)NCC(=O)NC(C(=O)O)c1ccccc1 (stereo not shown) [Example 55]	0.001 to 1
CCCC(NC(=O)C1CN(Cc2ccc(C)cc2)C(=O)N1C(=O)C(NC(=O)C(NC(C)=O)C(C)C)C1CCCCC1)C(=O)C(=O)NCC(=O)NC(C(=O)O)c1ccccc1 (stereo not shown) [Example 54]	0.001 to 1
CCCC(NC(=O)C1CN(Cc2ccccc2)C(=O)N1C(=O)C(NC(=O)C(NC(=O)OC(C)(C)C)C(C)C)C(C)C)C(=O)C(=O)NCC(=O)O (stereo not shown) [Example 24]	> 50
C=CCNC(=O)C(=O)C(CCC)NC(=O)C1CNC(=O)N1C(=O)C(NC(=O)C(NC(=O)C(CCC(=O)O)NC(=O)C(CCC(=O)O)NC(C)=O)C(C)C)C(C)C (stereo not shown) [Example 12]	1 to 50
C=CCNC(=O)C(=O)C(CCC)NC(=O)C1CN(Cc2ccccc2)C(=O)N1C(=O)C(NC(=O)C(N)C(C)C)C(C)C (stereo not shown) [Example 16]	> 50
C=CCNC(=O)C(=O)C(CCC)NC(=O)C1CN(CC(=O)OCC)C(=O)N1C(=O)C(NC(=O)C(CCC(=O)OC(C)(C)C)NC(C)=O)C(C)C (stereo not shown) [Example 6]	> 50
C=CCNC(=O)C(=O)C(CCC)NC(=O)C1CNC(=O)N1C(=O)C(NC(=O)C(NC(=O)OC(C)(C)C)C(C)C)C(C)C (single isomer, unassigned) [Example 9]	> 50
C=CCOC(=O)CNC(=O)C(=O)C(CCC)NC(=O)C1CN(Cc2ccccc2)C(=O)N1C(=O)C(NC(=O)C(NC(=O)C(CCC(=O)OC(C)(C)C)NC(=O)C(CCC(=O)OC(C)(C)C)NC(C)=O)C(C)C)C(C)C (stereo not shown) [Example 22]	> 50
C=CCNC(=O)C(=O)C(CCC)NC(=O)C1CN(Cc2ccccc2)C(=O)N1C(=O)C(NC(=O)C(NC(=O)C(CCC(=O)O)NC(=O)C(CCC(=O)O)NC(C)=O)C(C)C)C(C)C (stereo not shown) [Example 18]	0.001 to 1
C=CCNC(=O)C(=O)C(CCC)NC(=O)C1CN(Cc2ccccc2)C(=O)N1C(=O)C(NC(=O)C(NC(=O)C(CCC(=O)OC(C)(C)C)NC(=O)C(CCC(=O)OC(C)(C)C)NC(C)=O)C(C)C)C(C)C (stereo not shown) [Example 17]	> 50

Same assay, conditions: recombinant heterodimeric NS3/NS4A, chromogenic ester substrates, 30° C., pH 6.5; ranges of Ki* values; read-out: Ki*

Ki [µM]	SMILES
> 50	C=CCNC(=O)C(=O)C(CCC)NC(=O)C1CN(CC(=O)OCC)C(=O)N1C(=O)C(NC(=O)OC(C)(C)C)C(C)C (stereo not shown) [Example 3]
> 50	CCCC(NC(=O)C1CN(Cc2cccc(Br)c2)C(=O)N1C(=O)C(NC(=O)OC(C)(C)C)C1CCCCC1)C(=O)C(=O)NCC(=O)N[C@H](C(=O)O)c1ccccc1 (stereo partly shown) [Example 41]
1 to 50	CCCC(NC(=O)C1CN(Cc2ccc(Br)cc2)C(=O)N1C(=O)C(NC(=O)OCC(C)C)C1CCCCC1)C(=O)C(=O)NCC(=O)N[C@H](C(=O)OCc1ccccc1)c1ccccc1 (stereo partly shown) [Example 36]
> 50	CCCC(NC(=O)C1CN(Cc2cccc(Cl)c2)C(=O)N1C(=O)C(NC(=O)OCC(C)C)C1CCCCC1)C(=O)C(=O)NCC(=O)N[C@H](C(=O)OCc1ccccc1)c1ccccc1 (stereo partly shown) [Example 39]
> 50	C=CCNC(=O)C(=O)C(CCC)NC(=O)[C@@H]1CN(CC(=O)OCC)C(=O)N1C(=O)OCc1ccccc1 (stereo partly shown) [Example 1]
0.001 to 1	CCCC(NC(=O)C1CN(Cc2cccc(C)c2)C(=O)N1C(=O)C(NC(=O)OCC(C)C)C1CCCCC1)C(=O)C(=O)NCC(=O)N[C@H](C(=O)O)c1ccccc1 (stereo partly shown) [Example 52]
> 50	CCCC(NC(=O)C1CN(Cc2ccc(Br)cc2)C(=O)N1C(=O)C(NC(=O)OC(C)(C)C)C1CCCCC1)C(=O)C(=O)NCC(=O)N[C@H](C(=O)OCc1ccccc1)c1ccccc1 (stereo partly shown) [Example 31]
> 50	CCCC(NC(=O)C1CN(Cc2cccc(Br)c2)C(=O)N1C(=O)C(NC(=O)OCC(C)C)C1CCCCC1)C(=O)C(=O)NCC(=O)N[C@H](C(=O)OCc1ccccc1)c1ccccc1 (stereo partly shown) [Example 37]
> 50	CCCC(NC(=O)C1CN(Cc2ccc(Br)cc2)C(=O)N1C(=O)C(NC(=O)OCC(C)C)C1CCCCC1)C(=O)C(=O)NCC(=O)N[C@H](C(=O)O)c1ccccc1 (stereo partly shown) [Example 44]
